Results reported in PMC7089965 (Frontiers in Microbiology, 2020).

Assays:
RAW 264.7 cells = details: for cytotoxicity against RAW 264.7 cells / cell viability: 64 mg/L; for cell viability: two independent experiments in triplicate; for cytotoxic activity: RAW 264.7 macrophages, as summarised in the discussion
M. tuberculosis H37Rv = details: 7 days, CFU enumeration, three independent experiments

SMILES	cytotoxicity against RAW 264.7 cells (RAW 264.7 cells; 24 h, MTT)	cell viability (RAW 264.7 cells; 24 h, MTT, RAW 264.7)	cytotoxic activity (RAW 264.7 cells)	reduction in cell viability (RAW 264.7 cells; 32 mg/L, 24 h, MTT, RAW 264.7)	killing of H37Rv (M. tuberculosis H37Rv; 2 × MIC (16 mg/L))	killing of H37Rv (M. tuberculosis H37Rv; 4 × MIC (32 mg/L))
CCCCCCNCC(=O)N(CC(=O)N(CCCCN)CC(N)=O)[C@@H](C)c1ccccc1 [BM 1]	did not show cytotoxicity	> 80%	< 20%			
CCCCCCNCC(=O)N(CC(=O)N(CCCCN)CC(=O)N(CCCCCC)CC(=O)N(CC(=O)N(CCCCN)CC(=O)N(CCCCCC)CC(=O)N(CC(=O)N(CCCCN)CC(N)=O)[C@@H](C)c1ccccc1)[C@@H](C)c1ccccc1)[C@@H](C)c1ccccc1 [BM 3] (H-[NHexGly][Nspe][Nlys][NHexGly][Nspe][Nlys][NHexGly][Nspe][Nlys]-NH2)				50%		
CCCCCCNCC(=O)N(CC(=O)N(CCCCN)CC(=O)N(CCCCCC)CC(=O)N(CC(=O)N(CCCCN)CC(N)=O)[C@@H](C)c1ccccc1)[C@@H](C)c1ccccc1 [BM 2] (H-[NHexGly][Nspe][Nlys][NHexGly][Nspe][Nlys]-NH2)	did not show cytotoxicity	> 80%	< 20%		> 99.9%	> 99.9%

Where two headings read alike, the source gives them in different places. Where a SMILES comes first, the peptide text is derived from it. [ ]: non-standard residue; d: D form. Nspe = C[C@H](NCC(=O)O)c1ccccc1; NHexGly = CCCCCCNCC(=O)O; Nlys = NCCCCNCC(=O)O
